Measurements from the supplement of paper PMC12217912.
Some of the results follow. The full chains were built here from the parent and the listed change. Inactive controls read about 0.05.

B1: TEV protease; numbered along this chain (parent)
chain: MGESLFKGPRDYNPISSSICHLTNESDGHTTSLYGIGFGPFIITNKHLFRRNNGTLVVQSLHGVFKVKDTTTLQQHLVDGRDMIIIRMPKDFPPFPQKLKFREPQREERICLVTTNFQTKSMSSMVSDTSCTFPSGDGIFWKHWIQTKDGQCGSPLVSTRDGFIVGIHSASNFTNTNNYFTSVPKNFMELLTNQEAQQWVSGWRLNADSVLWGGHKVFMVKPEEPFQPVKEATQL

Variants of: B1
Test: raw area under fraction-flipped curve 0-4 h after induction (AUC4h, not background-subtracted), DNA-recorder readout of cleavage of the substrate (dimensionless); higher = more cleavage of the substrate by the protease variant
Conditions: temperature: 34 °C; time window: 0-4 h after rhamnose induction
Method: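 In vivo DNA recorder in E. coli TOP10(DE3) ΔrhaA at 34 °C. Each TEVp single-site mutant (parent TEVp 0) is paired with a single-site variant of the 7-mer TEVs (canonical ENLYFQ|S). The substrate sits between flexible linkers in a Bxb1-sfGFP-TEVs-SsrA fusion, so cleavage stabilises Bxb1 and speeds flipping of a recombination array, read by NGS. The value is the raw area under the fraction-flipped curve over 0-4 h after rhamnose induction (AUC4h), with ≥20 reads per time point. It is not background-subtracted; inactive controls average about 0.047.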
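Also: Bxb1 expression induced with 0.2% (w/v) L-rhamnose at OD600 near 0.5, cultures sampled hourly, flipped fraction per protease–substrate barcode pair counted by paired-end Illumina sequencing.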

Variant	area with substrate EALYFQS	area with substrate ECLYFQS	area with substrate EDLYFQS	area with substrate EELYFQS	area with substrate EGLYFQS	area with substrate EHLYFQS	area with substrate EKLYFQS	area with substrate ELLYFQS	area with substrate EMLYFQS	area with substrate EQLYFQS	area with substrate ERLYFQS	area with substrate ESLYFQS	area with substrate EVLYFQS	area with substrate EFLYFQS	area with substrate EILYFQS	area with substrate EPLYFQS	area with substrate EWLYFQS	area with substrate EYLYFQS	area with substrate ETLYFQS
N177L	0.218	0.127	0.137	0.163	0.137	0.126	0.114	0.115	0.18	0.186	0.135	0.14	0.187	–	–	–	–	–	–
Q75K	0.0741	0.0757	0.0862	0.0802	–	–	0.0835	0.0765	0.0805	0.0741	0.0688	0.0626	0.0448	0.0779	0.0551	0.0766	0.0673	0.0726	–
H29C	0.119	0.125	0.104	0.139	0.11	–	0.112	0.104	0.12	0.129	0.113	0.114	0.102	0.101	0.109	0.139	0.115	0.109	0.112
P9L	0.172	0.128	0.119	0.105	0.106	0.104	0.0807	0.144	–	–	0.11	0.127	0.114	–	0.0913	0.136	0.127	0.117	–
T132A	0.0835	0.109	0.12	0.188	0.0908	0.15	0.127	0.0931	0.134	0.18	0.0548	0.106	0.106	–	0.0949	0.125	0.106	–	–
G150H	0.0593	0.0678	0.0637	0.0699	0.0556	0.0641	0.0559	0.05	0.0628	0.0598	0.0586	0.0578	0.054	–	0.055	–	0.0712	0.0544	0.0638
N45T	0.0822	0.0786	0.0977	–	0.0648	0.0515	0.0807	0.0608	–	0.0873	0.0733	0.0831	0.0697	0.0979	0.0616	0.112	0.0718	0.0744	0.0833
P93M	0.14	0.1	0.127	–	–	–	0.123	–	–	0.11	0.112	0.101	0.124	0.087	–	–	0.0936	0.127	0.134
N13P	0.0929	0.106	0.138	0.125	0.0972	0.0874	0.0972	0.0986	0.117	0.12	0.0862	0.0978	0.102	–	0.0811	0.121	0.0814	0.11	0.0979
P14T	0.121	0.0921	0.122	0.11	–	–	0.112	0.097	0.106	0.138	0.108	0.105	0.103	0.156	0.0966	0.13	0.0805	0.0983	0.112
L99D	0.123	0.0574	0.101	–	–	–	–	–	–	–	–	0.07	0.0619	0.0951	0.0668	–	0.0461	–	–
T44S	0.111	0.0979	0.106	0.0909	0.0807	0.0975	0.097	0.0766	0.107	0.112	0.102	0.0948	0.099	–	–	0.104	0.0824	0.0903	0.11
